Reference: PubChem BioAssay AID463173 (ICCB-Longwood Screening Facility, Harvard Medical School, 2010)
Screen size: about 52,000 compounds; about 1,700 (3.3%) were called active. Cut-off read from the data, not from the text of the source: active = survival mostly below about 52% (no sharp cut-off); inactive = mostly above about 56%. This is one part of the list.

Test system: Wild type
Assay: growth inhibition of S. aureus wild type versus tarO mutant, primary screen, teichoic acid synthesis inhibitors, RN4220, OD600 (AID 463173)
Conditions: S. aureus RN4220 wild type/DeltatarO growth, OD600, 18 h, active compounds read low, screened at 18.75 µg/mL (by protocol)

Compound | survival
COc1ccccc1CNC(=O)c1cnc(N2CCCC2)nc1C | inactive: 126%
CC1CCN(c2oc(/C=C/c3ccc(F)cc3)nc2C#N)CC1 | inactive: 81%
CCN(CC)c1ccc2c(c1)OC(N)=C(C#N)C2c1cccc(F)c1 (centres undefined) | inactive: 62%
O=C(Nc1ccccc1)C1CCN(S(=O)(=O)c2ccc3[nH]c4c(c3c2)CCCCC4)CC1 | inactive: 72%
COc1ccccc1NC(=O)C1=C(C)Nc2nc(SCc3ccccc3)nn2C1c1cccnc1 (centres undefined) | inactive: 81%
COc1ccc(CCNC(=O)CCn2c(=O)c3ccccc3n(CC(=O)Nc3ccc(C)cc3C)c2=O)cc1OC | inactive: 141%
CCc1c(C)sc2c1CCN(C(=O)Nc1ccc(F)c(Cl)c1)C2c1ccc(F)cc1 (centres undefined) | inactive: 64%
CCOc1ccc(-c2nc(Cn3c(=O)cc(C)c4c(C)nn(-c5ccc(C)cc5)c43)c(C)o2)cc1 | inactive: 87%
Cn1c(=O)c2c(c3ccccc31)OC(=O)CC2c1cccc(F)c1 (centres undefined) | inactive: 76%
O=C(Nc1ccc(Cl)cc1)N1CCN(c2ccc3nnc(-c4ccccc4)n3n2)CC1 | inactive: 82%
O=c1[nH]c2cc3c(cc2cc1C(c1nnnn1C1CCCC1)N1CC=C(c2ccc(F)cc2)CC1)OCO3 (centres undefined) | inactive: 105%
CCOc1ccc(NC(=O)c2cc3c(=O)n(Cc4cccs4)ccc3nc2C)cc1 | inactive: 73%
CCCCC1(O)CC(C)(C)N([O])C(C)(C)C1 | inactive: 106%
COc1ccccc1N(CC(=O)NCCSCc1cccc(Cl)c1)S(C)(=O)=O | inactive: 76%
O=C(C1CCC(Cn2c(=O)c3sccc3n(Cc3ccccc3F)c2=O)CC1)N1CCCCC1 (centres undefined) | inactive: 129%
O=C(NCc1ccco1)C1CCC(N2C(=O)c3ccccc3C2=O)CC1 (centres undefined) | inactive: 104%
Cc1nonc1C(=O)N/N=C/c1ccccc1 | inactive: 121%
CCCCNC(=O)C1CCN(S(=O)(=O)c2ccc3c(ccn3CC)c2)CC1 | inactive: 124%
CC(C)NC(=O)C1CCN(C(=O)c2cc3sccc3n2Cc2ccc(Cl)cc2)CC1 | inactive: 81%
Cc1cc(C)c(NC(=O)c2ncoc2-c2ccco2)c(C)c1 | inactive: 112%
O=S(=O)(NCCc1csc2nc(-c3ccccc3)nn12)c1ccc(Cl)s1 | inactive: 82%
COc1ccc2c(CNC3CCCCCC3)c(C(=O)O)n(Cc3cccc(F)c3)c2c1 | inactive: 82%
Cc1cc(C)cc(NC(=O)CSc2nnc(-c3cc4occc4n3C)n2-c2ccccc2C)c1 | inactive: 100%

Compound | survival
CCN(CC)CCSc1nnc2c3cc(F)ccc3n(C)c2n1 | inactive: 139%
COC(=O)c1ccc(OC)c(CN2C(=O)N(c3ccc(C(C)=O)cc3)S(=O)(=O)c3ccccc32)c1 | inactive: 100%
CCOC(=O)c1c(C)[nH]c(CCC(=O)Nc2ccc(Cl)cc2C)c1C | inactive: 72%
Cc1ccc(CNCc2c(C(=O)O)n(Cc3ccc(C)cc3)c3cc(C)ccc23)cc1 | inactive: 16%
Cc1ccc(-c2noc(CN(C(=O)COc3cc(C)cc(C)c3C)C(C)C)n2)cc1 | active: 1%
Brc1ccc(-c2cc(-c3ccccc3)no2)cc1 | inactive: 112%
COc1ccc(-c2noc(CNS(=O)(=O)c3ccc(Br)cc3)n2)cc1OC | inactive: 93%
Cc1ccc(C)c(CN2C(=O)c3ccccc3S(=O)(=O)c3ccc(C(=O)NCc4ccccc4)cc32)c1 | inactive: 108%
CCn1cc2nc(SCc3cc(C)ccc3C)n(Cc3ccc(OC)cc3)c(=O)c2n1 | inactive: 83%
Cc1cccc(OCCSc2nc3ccc(NC(=O)COc4ccccc4)cc3s2)c1 | inactive: 99%
CCCN1CCc2nc(N3CCN(c4ncccn4)CC3)ncc2C1 | inactive: 83%
Cc1cccc(OCCCn2c(CCNC(=O)C(C)(C)C)nc3ccccc32)c1 | inactive: 84%
COc1ccc(S(=O)(=O)Nc2cc3c(cc2NCc2ccccc2)n(C)c(=O)n3C)cc1 | inactive: 79%
CCOc1ccc(C(=O)Nc2ccc3oc(-c4cccnc4)nc3c2)cc1 | inactive: 89%
Cc1ccc2c(=O)c(C(=O)c3ccc(F)cc3)cn(CC(=O)NCCc3ccccc3)c2n1 | inactive: 136%
CCOCCCNC(=O)C(=O)Nc1c2c(nn1-c1ccc(OC)cc1)CSC2 | inactive: 70%
COc1ccc(CN(Cc2ccco2)c2cnc(S(C)(=O)=O)nc2C(=O)Nc2ccc(C)cc2C)cc1 | inactive: 89%
Cc1c(C(=O)NCc2ccccc2Cl)sc2nc[nH]c(=O)c12 | inactive: 82%
O=C(CN1CCCN(Cc2ccc(F)cc2)S1(=O)=O)NCc1ccccc1Cl | inactive: 78%
CN1CCN(CCCNC(=O)c2ccc3nc(Cc4ccccc4)oc3c2)CC1 | inactive: 81%
Cc1ccc(-n2nc3c(=O)n(CCCC(=O)NCc4ccccc4F)nc(C)c3c2C)cc1 | inactive: 60%
Cc1csc2nc(COC(=O)CNC(=O)c3ccccc3Cl)cc(=O)n12 | inactive: 74%
COC(=O)CCCCC1SCC(NC(=O)c2ccccc2)C1OC(C)=O (centres undefined) | inactive: 92%

Compound | survival
O=C(Nc1c(C(=O)N2CCN(c3ccccc3F)CC2)oc2ccccc12)c1ccccc1F | inactive: 59%
O=C(CSc1nc2ccncc2[nH]1)Nc1ccccc1C(F)(F)F | inactive: 81%
Cc1nc(-c2ccc(S(=O)(=O)N3CCN(c4ccc(F)cc4)CC3)cc2)co1 | inactive: 72%
CCC12CN3CC(CC)(CN(C1)C3c1cc(Br)ccc1OC)C2=O (centres undefined) | inactive: 89%
CCn1cc(C(=O)NCc2ccc(C)cc2)c(=O)c2cc(S(=O)(=O)N3CCc4ccccc4C3)ccc21 | inactive: 74%
CCC(=O)N1CCc2cc(Br)cc(S(=O)(=O)CCC(=O)NCc3ccc(F)cc3)c21 | inactive: 82%
CC(=O)N1CCOc2cc(S(=O)(=O)N(C)Cc3ccccc3)c(Cl)cc21 | inactive: 92%
CCc1ccc(N(C)S(=O)(=O)c2ccc3[nH]cc(C(=O)NCC4CCCO4)c(=O)c3c2)cc1 (centres undefined) | inactive: 74%
N#Cc1ccccc1NC(=O)c1cnc(N2CCOCC2)c2ccccc12 | inactive: 72%
COc1cccc2c1Oc1ncccc1N(C(=O)CCC(=O)NCc1ccc(C)cc1)C2 | inactive: 88%
COc1ccccc1-c1nnc(C2CCN(C(=O)c3ccc(Cl)cc3)CC2)o1 | inactive: 90%
Cc1ccc(Cn2c(CNC(=O)c3cccc(C)c3)nc3ccccc32)cc1 | inactive: 107%
CCOc1ccccc1NC(=O)Cn1c2ncccc2c(=O)n1-c1ccc(C)c(C)c1 | inactive: 58%
CCc1ccc2nc(N3CCN(C(=O)C4CC4)CC3)sc2c1 | inactive: 71%
Cn1nnnc1SCCCNCc1cccc(OCc2ccccc2Cl)c1 | inactive: 90%
COc1ccc(C)cc1NC(=O)CSc1nc(=O)n(Cc2ccccn2)c2c1CCC2 | inactive: 140%
Cc1oc(-c2ccc(C(=O)Nc3ccccc3F)cc2)nc1COc1ccccc1 | inactive: 78%
CCN1C(=O)C(Cc2nc3ccccc3c(=O)n2-c2ccccc2)c2cc(Br)ccc21 (centres undefined) | inactive: 73%
COc1ccc(C2C(=O)N(C3CCC(C)CC3)CC(=O)N2CCC2=CCCCC2)cc1OC (centres undefined) | active: -3%
CCOc1ccc(NC(=O)CN2C(=O)C3(SCC(=O)N3c3ccc(F)cc3)c3ccccc32)cc1 (centres undefined) | inactive: 72%
CC(=O)N1CCCc2cc(S(=O)(=O)Nc3ccc(C)c(F)c3)ccc21 | inactive: 84%
Cc1oc2c(c(C)cc3oc(=O)c(CC(=O)NCc4ccc(F)cc4)c(C)c32)c1C | inactive: 85%
COc1ccc(CNc2oc(-c3ccc(COc4ccc(OC)cc4)o3)nc2C#N)cc1 | inactive: 129%

Compound | survival
O=C(N/N=C/c1ccccc1)C(O)c1ccccc1 (centres undefined) | inactive: 119%
Cc1cc(NC(=O)C2C3C(=O)N(CCC(C)C)C(C(=O)NC(C)(C)C)C34C=CC2(C)O4)no1 (centres undefined) | inactive: 111%
N#Cc1cc2cc3c(cc2nc1SCc1cccnc1)OCCO3 | inactive: 106%
Cc1ccc(-c2nn(-c3ccccc3)c3[nH]c(=O)c(CNCCN4CCOCC4)cc23)cc1 | inactive: 111%
CCNc1nc(NC(C)C)nc(C(=O)O)n1 | inactive: 119%
O=C1c2ccccc2C(=O)N1CSC1=NCCS1 | inactive: 111%
CCOC(=O)c1ccc(NS(=O)(=O)c2ccc3[nH]c4c(c3c2)CCCCC4)cc1 | inactive: 89%
Cc1cccc(NC(=O)Cn2c(=O)oc3cc(S(=O)(=O)NC4CCCC4)ccc32)c1 | inactive: 98%
CC(=O)N1CCc2cc(S(=O)(=O)NC(Cc3ccccc3)C(=O)Nc3ccc(Cl)cc3)ccc21 (centres undefined) | inactive: 89%
CCOc1ccc2[nH]c(=O)c(CN(Cc3ccccc3)C(=O)N3CCOCC3)cc2c1 | inactive: 105%
Cc1cc(C)c(OCC(=O)N(Cc2cccc(F)c2)Cc2ccco2)c(C)c1 | inactive: 104%
CCc1nn(CC(=O)N2CCN(c3cccc(C(F)(F)F)c3)CC2)c(=O)c2cccn12 | inactive: 108%
Cc1nc2ccccc2n1CCc1nc2c3ccccc3nc(SCc3ccc(F)cc3)n2n1 | inactive: 138%
CCCCN(C)C(=O)Cn1c(SCC(=O)Nc2ccc(C)c(C)c2)nc2ccccc21 | active: 14%
CCOC(=O)C1(C)C=C(Nc2ccc(C(=O)O)cc2)C(=O)N1c1ccc(C(=O)O)cc1 (centres undefined) | inactive: 124%
COc1ccc2c(c1)c1c(c(=O)n(-c3ccccc3C)c(=O)n1Cc1c(F)cccc1Cl)n2C | inactive: 105%
O=c1sc2ccccc2n1CCc1ccccc1 | inactive: 108%
Cc1cccc(Nc2c3c(nc4nncn24)CCC3)c1C | inactive: 98%
COc1ccccc1N1CCN(CC(O)COc2ccc(C)cc2C(C)(C)C)CC1 (centres undefined) | active: 2%
CC1=C(C)CC2C(=O)N(Cc3ccccc3)C(=O)C2C1 (centres undefined) | inactive: 99%
